# Data published in PubChem BioAssay (NCATS).
# Where “and” joins values, the source holds several entries; their conditions need not be identical. Equal values may be shown once. This list was built around the results that the source calls inconclusive (neither active nor inactive); the mix of calls is not that of the screen. Where the call is inconclusive, the potency comes from a doubtful curve fit. Calls of active or inactive are those of the source. The call rests on the fitted dose curve; in most records, active means well fitted activation curve with a large enough effect; inconclusive means small, poorly fitted or top-dose-only effect; inactive means no such curve, though single readings can be large or run the other way.
# Molecular target: Cellular tumor antigen p53 (Homo sapiens) (UniProt P04637)
# Test: Primary qHTS for small molecule compounds that upregulate eGFP-tagged delta133p53alpha (in N-terminal) cells. (AID 2060322);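 further: cells pre-induced with doxycycline then dosed without doxycycline; nearly all actives have a fitted effect of over 75% in size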;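 on activation: series mostly up to about 56 µM; 0% = DMSO vehicle and 100% = reference activator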
# Conditions: NCI-H358 eGFP-delta133p53alpha fluorescence, 24 h; activation: stronger effect = higher value
# Source text: Assay Development and Screening Technology
# National Center for Advancing Translational Sciences (NCATS),
# National Institute of Health (NIH), Rockville, Maryland
# Cellular senescence (CS) is one of the hallmarks of aging and age-related diseases. Senescent cells are characterized by an irreversible growth arrest, an increase in senescence-associated beta-galactosidase (SA-beta-gal) activity and p16INK4a expression, an activation of the DNA damage response pathways, and the emergence of a senescence-associated secretory phenotype (SASP).
# Delta133p53alpha, a human/primate-specific p53 protein isoform, delays or inhibits the induction of CS and SASP in various types of human cells, including progeria-derived fibroblasts, primary normal astrocytes, and CD8+ T lymphocytes. Induction of delta133p53alpha with small molecule compounds may provide therapeutic opportunities for inhibition of senescence/SASP-associated pathologies in progeria syndromes, astrocyte-mediated neuroprotection in neurodegenerative diseases, and possibly prevention and treatment of a wider range of senescence- and aging-associated diseases.
# Here we report the development and validation of a cell-based quantitative high throughput screening (qHTS) assay in 1,536-well format. This qHTS assay uses the NCI-H358 cell line with doxycycline-inducible expression of enhanced green fluorescent protein (eGFP)-tagged delta133p53alpha, which allows efficient and highly quantitative measurement of the protein levels.
# PROTOCOL TABLE (as described by Inglese J, Shamu CE and Guy RK. 2007)
# SEQUENCE No. (e.g., 1, 2, 3, etc.); […] (e.g., Cells, Incubation, Reagent, etc.); VALUE; DESCRIPTION.
# 1; Cells; 4uL; 800 doxycycline treated cells / well in doxycycline-free media, 1536-well black, clear-bottom low base Aurora microplates.
# 2; Compounds; 23 nL; Kalypsis pin tool (Wako) equipped with 1536-well pin heads, 5-azacytidine positive control.
# 3; Incubation; 24 hr; 37C, 5% CO2; 95% relative humidity.
# 4; Aspiration; 1x; BioTek EL406 washer dispenser (Agilent).
# 5; Fixing; 3.5% paraformaldehyde, BioTek EL406 washer dispenser (Agilent).
# 6; Washing; 1x PBS; BioTek EL406 washer dispenser (Agilent).
# 7; Nuclei staining; 1:1000 dilution of Hoechst 33342 (Thermofisher), BioTek EL406 washer dispenser (Agilent).
# 8; Incubation; 20 min; in the dark at room temperature.
# 9; Washing; 2x, 1x PBS (ThermoFisher), BioTek EL406 washer dispenser (Agilent).
# 10; Reagent; 10 uL; 1x PBS per well, sealed with clear adhesive tape.
# NOTES (numbers refer to sequence numbers above).
# 1. NCI-H358 cells expressing eGFP-tagged delta133p53alpha were grown in T75 culture flasks and treated with doxycycline for 24h, at 10 ng/ml for eGFP-D133p53a cells (N-terminal cell) and 100 ng/ml for D133p53a-eGFP cells (C-terminal cells). Cells were trypsinized, counted using a Counted 3 Automated Cell Counter (Thermo Fisher), and diluted to a concentration of 200,000 cells/ml. A Multidrop Combi Reagent Dispenser (ThermoFisher) was used to dispense 800 cells/well in […] of doxycycline-free media, into 1536-well black/clear bottom low base plates (AuroraMicroplates).
# 2. After plating cells, 23 nl of compound library, DMSO vehicle control or positive control (5-azacytidine) were transferred by Pin Tool (Wako). The plate map layout was the same for each plate: (column 1) non-doxycycline treated cells + DMSO vehicle control; (column 2) doxycycline treated cells + DMSO vehicle control baseline; (column 3) doxycycline treated cells + positive control 57.5 uM final concentration 5-azacytidine; (column 4) doxycycline treated cells + serial dilution of 5-azacytidine, 16-point 1:2 titration spanning 1.8 nM to […] final concentration; (columns 5-48) doxycycline treated cells + titration of library compounds.
# 3. Cells were incubated at 37 °C, 5 % CO2, 95% RH with breathable metal lid for 24h.
# 4-10. […] After two washes, 10 ul of 1X PBS (Thermo Fisher) was dispensed to each well. Clear adhesive plate seals (VWR) were applied and plates stored at 4 °C.
# 11. […]
# Potency means the concentration at half of the fitted maximal effect; tags describe the fitted curve by direction and shape.
# UniProt P04637, sequence (P04637 whole entry, looked up): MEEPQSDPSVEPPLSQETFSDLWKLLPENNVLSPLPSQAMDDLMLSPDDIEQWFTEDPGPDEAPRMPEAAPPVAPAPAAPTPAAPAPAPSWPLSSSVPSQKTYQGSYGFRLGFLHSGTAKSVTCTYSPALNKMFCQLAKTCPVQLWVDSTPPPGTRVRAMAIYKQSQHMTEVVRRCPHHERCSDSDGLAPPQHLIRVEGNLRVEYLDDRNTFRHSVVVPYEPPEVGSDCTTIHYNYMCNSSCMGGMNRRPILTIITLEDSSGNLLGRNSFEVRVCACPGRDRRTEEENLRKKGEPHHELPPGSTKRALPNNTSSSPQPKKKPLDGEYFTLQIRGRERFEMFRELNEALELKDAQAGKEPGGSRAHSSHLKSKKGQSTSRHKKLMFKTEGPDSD
SMILES,activation,Potency
Cc1cc(C(=O)N2Cc3cnn(C)c3Nc3ccccc32)ccc1CNC(=O)N1CCC[C@H]1C(=S)N1CCCN(C)CC1,inactive: -0.893%,
CC(=O)O[C@@H]1[C@H](O)[C@@H](O[C@@H]2O[C@@H](C)[C@H](O[C@@H]3OC[C@@H](O)[C@H](O[C@@H]4OC[C@@H](O)[C@H](O)[C@H]4O)[C@H]3O)[C@@H](O[C@@H]3O[C@H](CO)[C@@H](O)[C@H](O)[C@H]3O)[C@H]2O)[C@H](OC(=O)[C@]23CCC(C)(C)C[C@H]2C2=CCC4[C@@]5(C)CC[C@H](O[C@@H]6O[C@H](C(=O)O)[C@@H](O)[C@H](O[C@@H]7OC[C@@H](O)[C@H](O)[C@H]7O)[C@H]6O[C@@H]6O[C@H](CO)[C@H](O)[C@H](O)[C@H]6O)[C@@](C)(C=O)C5CC[C@@]4(C)[C@]2(C)CC3)O[C@@H]1C (stereo not given in full),inactive: -9.16%,
Cc1ccn(-c2cc(Cl)ccc2[C@@H](Oc2cc(-c3ccc(C[C@H](N)C(=O)O)cc3)nc(N)n2)C(F)(F)F)n1,inactive: -7%,
C=C(C)C(=O)O[C@H]1/C(C=O)=C\CC/C(CO)=C/[C@H]2OC(=O)C(=C)[C@@H]2[C@@H]1OC,,"inconclusive: 11.7 µM [activator, partial curve, poor fit]"
N[C@@H](CC(=O)O)C(=O)O,inactive: -3.52%,
CCOC(=O)OCC/C(SC(=O)OCC)=C(\C)N(C=O)Cc1cnc(C)nc1N,,"inconclusive: 4.9 µM [activator, full curve]"
CCCCS(=N)(=O)CC[C@H](N)C(=O)O (stereo not given in full),inactive: -3.27%,
COc1cc(N2CCC(N)CC2)ccc1Nc1ncc(Cl)c(-c2c[nH]c3ccccc23)n1,,active: 26.9 µM
C[C@@H]1C[C@H]2OC(=O)[C@@]3(C)CCC[C@](C)(C23)[C@@]1(O)CCC1=CC(=O)OC1O (stereo not given in full),inactive: 9.16%,
COC(=O)C1=COC(OC2OC(CO)C(O)C(O)C2O)C2C1CC(OC(=O)C(O)CC(=O)O)C2C (stereo not given),inactive: 10.7%,
CN(C)c1ccc(-c2nc3ncc(Cl)c(N4CCN(CC(=O)Nc5nccs5)CC4)c3[nH]2)cc1,,"inconclusive: 43.2 µM [activator, single point] and inconclusive: 13.3 µM [activator, partial curve, poor fit]"
NCCS(=O)(=O)O,,"inconclusive: 0.0617 µM [activator, full curve, poor fit]"
CN1[C@H]2CC[C@H]1CC(OC(=O)c1c[nH]c3ccccc13)C2 (stereo not given in full),,"inconclusive: 2.73 µM [activator, partial curve, poor fit]"
CO[C@H]1/C=C/C=C/C=C/C[C@H](OC(=O)[C@@H](C)NC(=O)C2CCCCC2)[C@H](C)[C@@H](O)/C(C)=C/CCc2cc(O)cc(c2)NC(=O)C1,,active: 2.81 µM
CC[N+](C)(C)c1cccc(O)c1,inconclusive: -33.3% [activator],
C=C1CC23CC1CCC2C12OC(=O)C(C)(C(O)C(O)C1O)C2C3C(=O)O (stereo not given),inactive: 2.68%,
COc1cc2nc(-c3ccc(N4CCN(C)CC4)cc3)nc(NCCN3CCOCC3)c2cc1OC,,"inconclusive: 0.685 µM [activator, full curve, poor fit]"
CC(=O)OCCN1C(=O)c2c(C)nc3ccc(S(=O)(=O)N4CCOCC4)cc3c2C1=O,inactive: 22.9%,
CCN(CC)CCSC(=O)C(c1ccccc1)c1ccccc1,,"inconclusive: 27.6 µM [activator, single point]"
O=C(NCCc1c[nH]c2ccccc12)c1cccnc1,inactive: 10.9%,

SMILES,activation,Potency
CC1(C)CCC(c2ccc(Cl)cc2)=C(CN2CCN(c3ccc(C(=O)NS(=O)(=O)c4ccc(N[C@H](CCN5CCOCC5)CSc5ccccc5)c(S(=O)(=O)C(F)(F)F)c4)cc3)CC2)C1,,"inconclusive: 10.9 µM [activator, full curve, poor fit] and active: 26.9 µM"
Cc1ccc(-n2[nH]c(C)c(N=Nc3cccc(-c4cccc(C(=O)O)c4)c3O)c2=O)cc1C,,"inconclusive: 43.2 µM [activator, partial curve, poor fit]"
Cc1ccc(NC(=O)c2cccc(C(C)(C)C#N)c2)cc1Nc1ccc2ncn(C)c(=O)c2c1,,"inconclusive: 27.3 µM [activator, partial curve, poor fit]"
OC[C@H]1O[C@@H](Oc2ccc(O)cc2)[C@H](O)[C@@H](O)[C@@H]1O,,"inconclusive: 6.92 µM [activator, single point]"
C=C1C(=O)OC2/C=C(/C)C3=CC(=O)C(C)(CC(OC(=O)/C(C)=C/COC(C)=O)C12)O3 (stereo not given),,"inconclusive: 4.65 µM [activator, single point]"
O=C(O)[C@H](Cc1ccc(Nc2nccc3ccncc23)cc1)NC1=C(Br)C(=O)C12CCCCC2,inactive: -6.21%,
C[C@@]12C(=O)OC(=O)[C@]1(C)C1CCC2O1,,"inconclusive: 1.1 µM [activator, full curve, poor fit]"
CN(C)CC1CCn2c(c(C3=C(c4cn(C)c5ccccc45)C(=O)NC3=O)c3ccccc32)C1 (stereo not given),,active: 34.3 µM
Cn1cc(CNCC2CCN(c3ncc(C(=O)NO)cn3)CC2)c2ccccc21,inconclusive: 30% [activator],"inconclusive: 24.3 µM [activator, partial curve, poor fit]"
CCN1CCN(Cc2ccc(NC(=O)Nc3ccc(Oc4cc(NC)ncn4)cc3)cc2C(F)(F)F)CC1,,"inconclusive: 37.9 µM [activator, single point]"
CN(C)C(=S)SC(=S)N(C)C,,active: 21.9 µM
COc1ccc(-n2[nH]c(=O)c3[nH]c4cc(Cl)ccc4c(=O)c3c2=O)c(C)c1,inactive: 9%,
C[C@@H]1O[C@@H](O[C@H]2[C@@H](OC(=O)[C@]34CCC(C)(C)CC3C3=CCC5[C@@]6(C)C[C@H](O)[C@H](O[C@@H]7O[C@H](CO)[C@@H](O)[C@H](O)[C@H]7O[C@@H]7OC[C@@H](O)[C@H](O)[C@H]7O)[C@@](C)(C(=O)O)C6CC[C@@]5(C)[C@]3(C)CC4)OC[C@H](O)[C@@H]2O)[C@H](O)[C@H](O)[C@H]1O[C@@H]1OC[C@@H](O)[C@H](O)[C@H]1O (stereo not given in full),,"inconclusive: 5.69 µM [activator, single point]"
O=C(N[C@@H](Cc1ccccc1)C(=O)CCl)OCc1ccccc1,,"inconclusive: 15.1 µM [activator, partial curve, poor fit]"
CN(CCCNC(=O)c1ccc2nc3c(c(Cl)c2c1)CCCC3)Cc1ccccc1,inactive: 20.5%,
CCc1ccccc1OC[C@@H](O)CN[C@H]1CCCc2ccccc21,,"inconclusive: 37.9 µM [activator, single point]"
COCCN1CCN(Cc2ccc(-c3n[nH]c4c3C(=O)c3c(NC(=O)NN5CCOCC5)cccc3-4)cc2)CC1,,active: 0.0757 µM
C[n+]1cc2c3c(ccc2c2ccc4cc5c(cc4c21)OCO5)OCO3,,active: 1.9 µM and active: 2.39 µM
Cc1nc(C)c2c(n1)N(Cc1ccc(-c3ccccc3-c3nn[nH]n3)cc1)C(=O)CC2,inconclusive: 32% [activator],
